The campaign covered roughly 48,000 compounds. About 1,200 (2.5%) were called active. Inconclusive results (about 2%) are left out.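 Rule for the calls: active = activation of at least 60% and not above a set upper limit (about 1 call in 100 departs from these limits); inconclusive = activation of 40% to 60%, or above that upper limit; inactive = activation under 40%.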 The list shows a part of the results.
target: Probable G-protein coupled receptor 32 (Homo sapiens) (UniProt O75388); test: qHTS for Agonists of Human Resolvin D1 Receptor DRV1; details: CHO-K1 GPR32 beta-arrestin PathHunter luminescence, 90 min; at 76.9 µM; active compounds read high; zero percent set by DMSO-only wells; note: 0% is about no effect
Summary of the method: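 Step 1: seed CHO-K1 GPR32 beta-arrestin cells, 2,500/well, overnight at 37 °C. Step 2: add compounds, 90 min at 37 °C. Step 3: detection reagent, 1 h ambient, then luminescence.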

UniProt O75388, sequence (O75388 whole entry, looked up): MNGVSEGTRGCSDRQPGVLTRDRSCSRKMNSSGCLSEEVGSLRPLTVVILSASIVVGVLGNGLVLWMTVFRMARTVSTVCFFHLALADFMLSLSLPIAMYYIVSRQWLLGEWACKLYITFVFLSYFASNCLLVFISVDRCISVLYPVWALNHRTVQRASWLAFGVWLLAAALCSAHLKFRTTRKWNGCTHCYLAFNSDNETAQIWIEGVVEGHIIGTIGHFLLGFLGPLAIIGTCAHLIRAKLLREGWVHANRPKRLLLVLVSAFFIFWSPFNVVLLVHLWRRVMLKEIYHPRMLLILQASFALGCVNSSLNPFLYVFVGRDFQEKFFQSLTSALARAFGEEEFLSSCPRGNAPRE

activation, inactive:
COc1ccc(NC(=O)c2ncn(-c3ccccc3)n2)cc1Cl 21.7%
CCc1ccc(-n2nc(C)c3c(C)cc(=O)n(CC(=O)Nc4cc(C)ccc4C)c32)cc1 1.05%
Cc1c(C(=O)OCC2CCCCC2)[nH]c2c1C(=O)CC(c1ccccc1Cl)C2 (stereo not drawn) 4.16%
COc1ccc(CCNC(=O)CCc2c(C)nc3c4cccnc4nn3c2C)cc1OC -5.27%
CCCCn1cc(S(=O)(=O)c2ccc(OC)cc2)c(=O)c2cc(F)c(N3CCOCC3)cc21 -16.5%
COc1ccccc1NC(=O)N1CCN(Cc2nc3ccc(C)cc3o2)CC1 -34.4%
CC(=O)Nc1c(C)nn(-c2ccccc2)c1N1CCC(C(=O)Nc2cc(F)ccc2F)CC1 -5.95%
Cc1ccc(N2C(=O)c3n[nH]c(C)c3C2c2ccccc2Cl)cc1 (stereo not drawn) 31.2%
Cc1cc(C)c(NC(=O)Cn2c(=O)n(CC3CCCO3)c(=O)c3ccccc32)c(C)c1 (stereo not drawn) -1.46%
Cn1cc(S(=O)(=O)N2CCCC2)cc1C(=O)N1CCN(c2cccc(Cl)c2)CC1 -21.8%
COc1cccc(NC(=O)N(CCC(C)C)C2CCN(C(C)C)CC2)c1 -5.29%
Cc1ccccc1OCC(=O)Nc1ccc(-c2nc3cc(Cl)cc(Cl)c3o2)cc1 -9.76%
CCCSc1ncc(Cl)c(C(=O)N(Cc2ccccc2)c2ccc(OC)cc2)n1 -25.1%
Cc1ccc(CNC(=O)C2CCN(S(=O)(=O)c3ccc4nc5c(c(C(=O)O)c4c3)CC(C)CC5)CC2)cc1 (stereo not drawn) -10.4%
CCc1cnc2c(c1SCC(=O)NCc1ccc(C)cc1)c(=O)n(C)c(=O)n2C -2.13%
C[C@@H](N)C(=O)O -21.4%
CC(=O)c1ccc(NS(=O)(=O)c2ccc(Br)s2)cc1 47.9%
Cn1ccc2c(OCC(=O)Nc3ccc(OC(F)(F)F)cc3)cccc2c1=O 35.6%
CCn1cc(C(=O)N2CCN(c3cc(Cl)ccc3C)CC2)c(=O)c2cc(S(=O)(=O)N3CCCC3)ccc21 -4.63%
COc1cc(Cl)c(C)cc1NC(=O)c1cc2c(=O)oc3ccccc3c2s1 -15.8%
CCOc1ccc(C(=O)OCc2cc(=O)n3nc(C4CC4)sc3n2)cc1 18.9%
CC(C)(C)C1CCc2c(sc(NC(=O)c3ccco3)c2C(=O)Nc2ccccc2Cl)C1 (stereo not drawn) 13.1%
COc1cc2nc(SCC(=O)Nc3ccccc3C)n3nc(CCn4c(C)nc5ccccc54)nc3c2cc1OC -0.929%
